Measured values taken from PubChem BioAssay (NCATS).
“And” between values parts separate entries of the source, which are not always exact repeats. Equal entries are not always repeated. The inconclusive results got no clear call from the source; some entries with a clear call stand among them for comparison. Where the call is inconclusive, the potency comes from a doubtful curve fit. The source made the active and inactive calls. Calls come from the whole dose curve; as a rule, active = well fitted curve in the direction sought with a large enough effect; inconclusive = small, poorly fitted or top-dose-only effect, or another doubt; inactive = no such curve, though single readings can be large; an effect the other way counts as inactive or inconclusive.

What was measured:
[1] = Viability qHTS for spleen associated tyrosine kinase inhibitor (SYKi) naive MV4-11 cells (AID 1963823); settings: MV4-11 AML viability, CellTiter-Glo luminescence, 72 h; viability (% of control): at 45 µM (top of the series); note: nearly all actives have a fitted effect of over 40% in size
Procedure, shortened: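 qHTS, SYK inhibitor-naive MV4-11; 500 cells/well; 72 hr compound exposure, 37 C; CellTiter-Glo added, 10 min RT; luminescence read.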

[2] = Viability qHTS for spleen associated tyrosine kinase inhibitor (SYKi) drug resistant MV4-11 cells (AID 1963824); settings: SYKi-resistant MV4-11 viability, CellTiter-Glo, 72 h; series mostly up to 45 µM; note: nearly all actives have a fitted effect of over 35% in size
Procedure, shortened: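 SYK inhibitor-resistant MV4-11 AML cells, 500 per well, added to predispensed compounds and incubated 72 hr at 37 C, 5% CO2. Viability measured by CellTiter-Glo luminescence after 10 min at room temperature.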

[3] = Quantitative highthroughput screen to assess conditional lethalithy of NOMO1 cells grown in RPMI1640 with untreated serum (RPMI+s) (AID 1963876); settings: NOMO1 AML cells in RPMI+serum, CellTiter-Glo viability, 48 h; viability: at 45.8 µM (top of the series); note: nearly all actives have a fitted effect of over 35% in size;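 for Viability: 100% = DMSO wells and 0% = empty wells without cells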
Procedure, shortened: (§1)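 Each medium arm—HPLM with 10% dialyzed FBS, or RPMI1640 with 5 mM glucose and 10% untreated or dialyzed FBS—was screened against an 11-point, 3-fold compound titration for 48 h at 37 °C, with CellTiter-Glo luminescence as endpoint.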

[4] = Quantitative highthroughput screen to assess conditional lethalithy of NOMO1 cells grown in RPMI1640 with dialyzed fetal bovine serum (RPMI+ds) (AID 1963877); settings: NOMO1 in RPMI+dialyzed FBS viability, ATP luminescence, 48 h; series mostly up to 45.8 µM; note: nearly all actives have a fitted effect of over 30% in size;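 for Viability: 100% = DMSO control wells and 0% = empty wells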
Procedure, shortened: as §1

[5] = Quantitative highthroughput screen to assess conditional lethalithy of NOMO1 cells grown in Human Plasma-Like Medium with dialyzed fetal bovine serum (HPLM+ds) (AID 1963878); settings: NOMO1 AML cells in HPLM+ds, CellTiter-Glo viability, 48 h; viability: at 45.8 µM (top of the series); note: nearly all actives have a fitted effect of over 35% in size;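 for Viability: 100% = DMSO wells and 0% = empty wells on each plate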
Procedure, shortened: as §1

[6] = Quantitative highthroughput screen to assess conditional lethalithy of P12 Ichikawa cells grown in RPMI1640 with dialyzed fetal bovine serum (RPMI+ds) (AID 1963880); settings: ATP luminescence, 48 h; Potency: P12-Ichikawa viability; series mostly up to 45.8 µM; note: nearly all actives have a fitted effect of over 35% in size
Procedure, shortened: as §1

[7] = Quantitative highthroughput screen to assess conditional lethalithy of P12 Ichikawa cells grown in Human Plasma-Like Medium with dialyzed fetal bovine serum (HPLM+ds) (AID 1963879); settings: ATP luminescence, 48 h; Potency: viability; series mostly up to 45.8 µM; note: nearly all actives have a fitted effect of over 35% in size
Procedure, shortened: as §1

[8] = Quantitative highthroughput screen to assess conditional lethalithy of SEM cells grown in Human Plasma-Like Medium with dialyzed fetal bovine serum (HPLM+ds) (AID 1963882); settings: SEM B-ALL cells in HPLM+ds, CellTiter-Glo viability, 48 h; series mostly up to 45.8 µM; note: nearly all actives have a fitted effect of over 35% in size
Procedure, shortened: as §1

[9] = Quantitative highthroughput screen to assess conditional lethalithy of SEM cells grown in RPMI1640 with unreated serum (RPMI+s) (AID 1963883); settings: SEM B-ALL cells, CellTiter-Glo viability, 48 h; viability: at 45.8 µM (top of the series); note: nearly all actives have a fitted effect of over 35% in size;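 for Viability: 100% = DMSO wells and 0% = empty wells without cells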
Procedure, shortened: as §1

[10] = Quantitative highthroughput screen to assess conditional lethalithy of SEM cells grown in RPMI1640 with dialyzed fetal bovine serum (RPMI+ds) (AID 1963884); settings: SEM B-ALL cells, RPMI+dialyzed FBS, CellTiter-Glo viability, 48 h; viability: at 45.8 µM (top of the series); note: nearly all actives have a fitted effect of over 35% in size;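 for Viability: 100% = DMSO control wells and 0% = empty wells without cells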
Procedure, shortened: as §1

[11] = Cellular viability qHTS for adrenocortical cancer (ACC) cell line SW-13 (AID 1963989); settings: SW-13 ACC cells viability, CellTiter-Glo, 48 h; activity (max response): stronger effect = lower value; note: nearly all actives have a fitted effect of over 65% in size;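 for activity (max response): cells grown in serum-free medium with ITS supplement; % is set by controls: 0 for no effect and ±100 for the full control effect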
Procedure, shortened: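 Viability was read as CellTiter-Glo luminescence after 48 h compound treatment (up to 46 uM final) of SW-13 cells grown serum-free; titration curves were fit with a four-parameter logistic model to give IC50 and efficacy.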

[12] = Quantitative highthroughput screen to assess conditional lethalithy of P12 Ichikawa cells grown in RPMI1640 with untreated serum (RPMI+s) (AID 1963881); settings: ATP luminescence, 48 h; Potency: viability; series mostly up to 45.8 µM; note: nearly all actives have a fitted effect of over 35% in size
Procedure, shortened: as §1

[13] = Cellular viability qHTS for adrenocortical cancer (ACC) cell line NCI-H295R (AID 1963990); settings: CellTiter-Glo ATP luminescence, 48 h; activity change, negative = viability loss: at 46.1 µM (top of the series); note: nearly all actives have a fitted effect of over 60% in size;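 for activity change, negative = viability loss: 0% = DMSO only wells and -100% = full killing with cytotoxic reference compound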
Procedure, shortened: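 CellTiter-Glo ATP luminescence, read 48 h after compound addition, measured viability of NCI-H295R adrenocortical cells grown serum-free with ITS. Final concentrations spanned up to 46 uM. Data normalized to DMSO and doxorubicin, fitted for IC50 and maximal response.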
Potency is the fitted concentration of half-maximal effect; tags give direction and shape of the fitted curve.

| Structure (SMILES) | Potency [1] | Potency [2] | Potency [3] | Potency [4] | Potency [5] | Potency [6] | Potency [7] | Potency [8] | Potency [9] | Potency [10] | Potency [11] | Potency [12] | Potency [13] | activity (max response) [11] |
| --- | --- | --- | --- | --- | --- | --- | --- | --- | --- | --- | --- | --- | --- | --- |
| Nc1nc2c(c(=O)[nH]1)N(C=O)[C@H](CNc1ccc(C(=O)N[C@@H](CCC(=O)O)C(=O)O)cc1)CN2 | inconclusive: 8.33 µM [rising, single point] | inactive | inconclusive: 0.296 µM [cytotoxic, full curve] | inconclusive: 0.372 µM [cytotoxic, full curve] | inconclusive: 0.235 µM [cytotoxic, full curve] | active: 3.32 µM |  |  |  |  |  |  |  |  |
| CN(C(Cc1ccc(OS(=O)(=O)c2cccc3cnccc23)cc1)C(=O)N1CCN(c2ccccc2)CC1)S(=O)(=O)c1cccc2cnccc12 (configuration not stated) | inconclusive: 1.84 µM [cytotoxic, full curve] and inconclusive: 3.32 µM [cytotoxic, full curve] | inconclusive: 2.91 µM [cytotoxic, full curve] and inconclusive: 3.32 µM [cytotoxic, full curve] | inactive | inconclusive: 23.5 µM [cytotoxic, single point] | inconclusive: 20.9 µM [cytotoxic, partial curve, poor fit] |  | inconclusive: 18.7 µM [cytotoxic, partial curve, poor fit] | inconclusive: 18.7 µM [cytotoxic, partial curve] | inconclusive: 14.8 µM [cytotoxic, partial curve] | inconclusive: 14.8 µM [cytotoxic, partial curve] |  |  |  |  |
| Nc1nc(=S)c2[nH]cnc2[nH]1 | inconclusive: 4.22 µM [cytotoxic, partial curve] | inconclusive: 1.5 µM [cytotoxic, full curve] | inconclusive: 23.5 µM [cytotoxic, partial curve] | active: 7.43 µM | inconclusive: 37.2 µM [cytotoxic, single point] | active: 14.8 µM | inconclusive: 18.7 µM [cytotoxic, partial curve] | inconclusive: 29.6 µM [cytotoxic, single point] | inconclusive: 37.2 µM [cytotoxic, single point] | inconclusive: 0.935 µM [cytotoxic, full curve] |  |  |  |  |
| CN(C)CC[C@H](CSc1ccccc1)Nc1ccc(S(=O)(=O)NC(=O)c2ccc(N3CCN(Cc4ccccc4-c4ccc(Cl)cc4)CC3)cc2)cc1[N+](=O)[O-] | active: 0.148 µM | active: 0.0332 µM | inconclusive: 1.32 µM [cytotoxic, full curve] | inconclusive: 0.332 µM [cytotoxic, full curve] | inconclusive: 1.87 µM [cytotoxic, full curve] |  | active: 1.48 µM | active: 0.059 µM | active: 0.0935 µM |  | inconclusive: 22.4 µM [cytotoxic, single point] |  |  |  |
| COc1cc2c(cc1OC)C1CC(=O)C(CC(C)C)CN1CC2 (configuration not stated) | inconclusive: 41.7 µM [cytotoxic, single point] | inconclusive: 37.2 µM [cytotoxic, single point] | inactive | inactive | inactive |  | inactive |  | inactive |  |  |  |  |  |
| O=c1[nH]cc(F)c(=O)[nH]1 | inconclusive: 2.99 µM [cytotoxic, full curve] and inconclusive: 1.86 µM [cytotoxic, full curve] | inconclusive: 2.11 µM [cytotoxic, full curve] and inconclusive: 1.66 µM [cytotoxic, full curve] | inconclusive: 14.8 µM [cytotoxic, partial curve] | inconclusive: 8.33 µM [cytotoxic, full curve] | active: 10.5 µM |  | active: 8.33 µM |  | active: 9.35 µM | active: 10.5 µM |  | inconclusive: 13.2 µM [cytotoxic, partial curve] |  |  |
| Cc1nc2c(-c3cnc(N)nc3)nc(N3CCOCC3)nc2n1C(C)C | inconclusive: 0.184 µM [cytotoxic, full curve] | active: 326 nM and active: 468 nM | inconclusive: 0.0132 µM [cytotoxic, full curve] | inconclusive: 0.0263 µM [cytotoxic, full curve] | inconclusive: 0.0074 µM [cytotoxic, full curve] | active: 0.0234 µM |  | inconclusive: 0.0105 µM [cytotoxic, full curve] | inconclusive: 0.0017 µM [cytotoxic, full curve] | inconclusive: 0.0093 µM [cytotoxic, full curve] | inconclusive: 0.631 µM [cytotoxic, full curve] | active: 0.0186 µM |  |  |
| COc1cc(N2CCC(N3CCN(C)CC3)CC2)ccc1Nc1ncnc(Nc2ccccc2S(=O)(=O)C(C)C)n1 | active: 1.16 µM and active: 1.32 µM | active: 2.06 µM and active: 2.63 µM | inconclusive: 13.2 µM [cytotoxic, partial curve] | inconclusive: 14.8 µM [cytotoxic, partial curve, poor fit] | inconclusive: 13.2 µM [cytotoxic, partial curve, poor fit] |  | inconclusive: 20.9 µM [cytotoxic, partial curve] | inconclusive: 8.33 µM [cytotoxic, full curve] | inconclusive: 7.43 µM [cytotoxic, full curve, poor fit] | inconclusive: 8.33 µM [cytotoxic, full curve, poor fit] | active: 11.2 µM | inconclusive: 29.6 µM [cytotoxic, single point] | active: 8.91 µM |  |
| CC(C)(C)NCC(O)c1ccc(O)c(CO)c1 (configuration not stated) | inactive and inconclusive: 16.6 nM [cytotoxic, full curve, poor fit] | inconclusive: 0.0372 µM [cytotoxic, full curve, poor fit] | inconclusive: 5.26 µM [cytotoxic, partial curve] | inconclusive: 1.66 µM [cytotoxic, full curve] | inconclusive: 1.32 µM [cytotoxic, full curve] | inconclusive: 4.18 µM [cytotoxic, full curve, poor fit] | inconclusive: 2.64 µM [cytotoxic, full curve, poor fit] |  |  |  |  |  | inactive |  |
| Nc1nc(=O)n([C@H]2C[C@H](O)[C@@H](CO)O2)cc1F | inconclusive: 0.0332 µM [cytotoxic, full curve] | active: 0.0295 µM | inconclusive: 1.32 µM [cytotoxic, full curve] | active: 0.0209 µM | inconclusive: 0.0209 µM [cytotoxic, full curve] | active: 0.0833 µM | inconclusive: 0.0662 µM [cytotoxic, full curve] | inconclusive: 0.0264 µM [cytotoxic, full curve] | inconclusive: 1.87 µM [cytotoxic, partial curve, poor fit] | inconclusive: 0.0093 µM [cytotoxic, full curve] | inconclusive: 0.282 µM [cytotoxic, full curve, poor fit] |  | inconclusive: 0.0224 µM [cytotoxic, full curve] |  |
| CN1CCN(CCCN2c3ccccc3Sc3ccc(Cl)cc32)CC1 | inconclusive: 21.1 µM [cytotoxic, single point] | inconclusive: 21.1 µM [cytotoxic, single point] | inconclusive: 3.32 µM [cytotoxic, full curve] | inconclusive: 3.32 µM [cytotoxic, full curve] | inconclusive: 1.05 µM [cytotoxic, full curve] | inconclusive: 8.33 µM [cytotoxic, full curve] | inconclusive: 9.35 µM [cytotoxic, full curve] |  | inconclusive: 23.5 µM [cytotoxic, single point] |  | inconclusive: 18.4 µM [cytotoxic, single point] |  | inconclusive: 29.1 µM [cytotoxic, single point] |  |
| CC1=C(C)C(=O)C(C(CCCCCC(=O)O)c2ccccc2)=C(C)C1=O (configuration not stated) | inconclusive: 13.3 µM [cytotoxic, partial curve] and inconclusive: 13.2 µM [cytotoxic, partial curve] | inconclusive: 15 µM [cytotoxic, partial curve] and inconclusive: 13.2 µM [cytotoxic, partial curve] | inconclusive: 3.32 µM [cytotoxic, full curve] | inconclusive: 2.64 µM [cytotoxic, full curve] | inconclusive: 0.526 µM [cytotoxic, full curve, poor fit] | inconclusive: 23.5 µM [cytotoxic, single point] | inactive | inconclusive: 4.69 µM [cytotoxic, full curve] | inconclusive: 1.32 µM [cytotoxic, full curve] | inconclusive: 7.43 µM [cytotoxic, partial curve, poor fit] |  |  |  | inactive: 0.763% and inactive: -13.4% |
| CC(C)(C)NC(=O)[C@H]1CC[C@H]2[C@@H]3CC[C@H]4NC(=O)C=C[C@]4(C)[C@H]3CC[C@]12C | inconclusive: 29.9 nM [cytotoxic, full curve, poor fit] and inconclusive: 18.6 µM [cytotoxic, partial curve, poor fit] | inconclusive: 211 nM [cytotoxic, full curve, poor fit] and inconclusive: 18.6 µM [cytotoxic, partial curve] | active: 2.35 µM | inconclusive: 2.96 µM [cytotoxic, full curve] | inconclusive: 2.09 µM [cytotoxic, full curve] | inconclusive: 16.6 µM [cytotoxic, partial curve] |  |  | inactive | inactive |  |  |  |  |
